The record followed here is paper PMC4336329 (PLoS ONE, 2015).

The campaign covered roughly 310,000 compounds. About 14,000 (4.5%) showed an effect of 50% or more. Effects have a minus sign here. This is one part of the list.
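Further: peak tail current of the secondary pulse compared with the same well before compound.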

Sequence of human ether-à-go-go-related gene (hERG) potassium channel (Q12809 whole entry, looked up): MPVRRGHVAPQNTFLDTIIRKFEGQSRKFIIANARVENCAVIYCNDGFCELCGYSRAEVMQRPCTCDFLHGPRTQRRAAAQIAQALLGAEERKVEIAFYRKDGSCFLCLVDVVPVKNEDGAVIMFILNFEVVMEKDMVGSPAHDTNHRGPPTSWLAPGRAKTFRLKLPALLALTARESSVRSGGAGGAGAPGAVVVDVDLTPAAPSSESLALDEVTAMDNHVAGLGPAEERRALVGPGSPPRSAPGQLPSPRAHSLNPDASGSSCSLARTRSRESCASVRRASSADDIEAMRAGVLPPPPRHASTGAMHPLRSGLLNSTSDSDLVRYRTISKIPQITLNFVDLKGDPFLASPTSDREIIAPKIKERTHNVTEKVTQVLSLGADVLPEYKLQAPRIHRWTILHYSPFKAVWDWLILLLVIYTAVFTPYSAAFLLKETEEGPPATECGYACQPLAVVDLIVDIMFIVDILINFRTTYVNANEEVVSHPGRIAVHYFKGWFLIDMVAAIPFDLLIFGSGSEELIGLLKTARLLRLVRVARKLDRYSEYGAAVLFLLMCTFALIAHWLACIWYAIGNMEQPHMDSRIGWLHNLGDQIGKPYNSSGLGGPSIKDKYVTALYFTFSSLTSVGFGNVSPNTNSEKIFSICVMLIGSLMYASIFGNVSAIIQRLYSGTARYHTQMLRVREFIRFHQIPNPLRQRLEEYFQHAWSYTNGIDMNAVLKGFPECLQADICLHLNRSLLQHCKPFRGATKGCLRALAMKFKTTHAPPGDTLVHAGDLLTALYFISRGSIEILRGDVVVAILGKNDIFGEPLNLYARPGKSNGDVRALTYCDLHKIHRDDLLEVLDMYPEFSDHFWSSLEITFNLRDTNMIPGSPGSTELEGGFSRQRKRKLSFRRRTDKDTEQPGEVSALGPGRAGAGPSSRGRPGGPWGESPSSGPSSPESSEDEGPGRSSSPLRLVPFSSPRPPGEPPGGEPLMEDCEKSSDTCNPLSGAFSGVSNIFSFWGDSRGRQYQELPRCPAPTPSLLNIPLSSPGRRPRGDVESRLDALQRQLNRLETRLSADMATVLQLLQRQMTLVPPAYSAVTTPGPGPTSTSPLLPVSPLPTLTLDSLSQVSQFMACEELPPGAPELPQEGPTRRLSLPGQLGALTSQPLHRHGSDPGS

This test addresses human ether-à-go-go-related gene (hERG) potassium channel (human, UniProt Q12809). Briefly: primary screen, population patch clamp on CHO cells stably expressing hERG.
On to `O=C(C(=O)N1CCN(c2cccc(Cl)c2)CC1)N1CCCCC1`, for which the “hERG current change (%, negative = inhibition) at 10uM” value is 5.36%. The result for `Cc1ccn(C(=O)c2cc3ccccc3oc2=O)n1` reads -4.47%; that for `CCOC(=O)c1nnn2c1nc(N1CCCCC1)c1ccccc12`, -23.8%.

As to `Cc1sc2nc(CSC(C)C(=O)Nc3ccc(C#N)cc3)[nH]c(=O)c2c1C` (stereo not shown), the “hERG current change (%, negative = inhibition) at 10uM” value was -11%.

As for `COc1cccc(NC(=O)C2CCN(C(=O)[C@@H]3Cc4ccccc4CN3)CC2)c1`, the “hERG current change (%, negative = inhibition) at 10uM” value was -48.1%. Regarding `O=c1c2ccccc2c(C=NC2CCS(=O)(=O)C2)c(O)n1-c1ccccc1` (stereo not shown), the “hERG current change (%, negative = inhibition) at 10uM” value was 12%. The result for `COc1ccc(OC)c2c1cc(C(=O)N[C@H](C(=O)N1CCC(C(=O)O)CC1)C(C)C)n2C` reads 20.9%; that for `COc1ccc(S(=O)(=O)N2CCc3ccccc3C2)cc1`, 39.7%; that for `CCC(=O)Nc1ccc(-c2ccc(N3CCN(C)CC3)nn2)cc1`, 13.3%. The result for `CC1CCCC(C)N1CCCNC(=O)Cn1cc2c(n1)CCCC2` (stereo not shown) reads -3.99%. Next, `Cc1c(Br)cc(C(=O)N2CCCC2)c(C)c1C`: 0.525%.

In the case of `COC(=O)NNC(=O)COc1cc(C)ccc1C`, the “hERG current change (%, negative = inhibition) at 10uM” value was determined as 4.95%.

For `N#C/C(=C\c1ccc[nH]1)C(=O)Nc1ccccc1[N+](=O)[O-]`, the “hERG current change (%, negative = inhibition) at 10uM” value stood at 6.78%. Next, `O=S(=O)(c1cccc(C(F)(F)F)c1)N1CCN(c2nnnn2-c2ccccc2)CC1`: 22.9%; `CCOC(=O)N1CCN(c2cc(C)nc3nc(C)nn23)CC1`: -32.9%; `CCOCCCN(C)C1CCN(C(=O)c2oc3ccccc3c2NC(=O)COc2cccc(C)c2)CC1`: -82.2%.

Turning to `COc1ccc(C2NCCc3sccc32)cc1` (stereo not shown), the “hERG current change (%, negative = inhibition) at 10uM” value is on record as 2.97%.

Turning to `O=C(CN1C(=O)NC2(CCCc3ccccc32)C1=O)N1CCN(C(=O)c2ccco2)CC1` (stereo not shown), the “hERG current change (%, negative = inhibition) at 10uM” value is listed as -34.3%. Next, `CCOC(=O)c1ccc2nc(CCC(=O)N[C@H](C(=O)OC)C(C)C)c(=O)n(CC)c2c1`: -9.78%; `Cc1ccc(S(=O)(=O)N2CCN(C(=O)CCC(=O)NCc3cccc(C(F)(F)F)c3)CC2)cc1`: -54.2%; `O=C(NCc1cccnc1)C1CCN(S(=O)(=O)c2cccc(C(F)(F)F)c2)CC1`: 2.69%. The result for `COc1cc(Br)c(-c2sc(Nc3ccccc3)n[n+]2-c2ccccc2)cc1OC.[Cl-]` reads -68.7%. Next, `Cc1[nH]nc(N=CC2=C(O)CC(C)(C)CC2=O)c1-c1ccc(Cl)cc1`: -14.2%. Turning to `O=[N+]([O-])c1ccc(Cc2ccncc2)cc1`, the “hERG current change (%, negative = inhibition) at 10uM” value is given as -26.9%.

`CC1Sc2ccc(S(=O)(=O)N3CCC(C(=O)Nc4ccc(Cl)cc4)CC3)cc2NC1=O` (stereo not shown): the “hERG current change (%, negative = inhibition) at 10uM” value was 7.35%.

On to `CCCCNC(=O)c1nn2c(C(F)(F)F)cc(-c3ccc(OC)cc3)nc2c1Br`, for which the “hERG current change (%, negative = inhibition) at 10uM” value is reported as 5.02%.

On to `COc1ccc(OC)c(S(=O)(=O)N(C)CC(=O)Nc2ccccc2OC)c1`, for which the “hERG current change (%, negative = inhibition) at 10uM” value is listed as -20.2%. The result for `COc1cc(OC)cc(C(=O)N[C@H](C(=O)Nc2ccc(NC(C)=O)cc2)C(C)C)c1` reads 13%. Next, `Cc1csc(SCC(=O)c2cc(C)n(Cc3cccs3)c2C)n1`: 3.01%; `CCOC(=O)c1oc2ccc(S(=O)(=O)n3nc(-c4ccc(OC)cc4)cc3N)cc2c1C`: 18.4%. Next, `NC(=S)NNC(=S)Nc1ccccc1`: 22.8%. For the compound `CCCN(CC1CC1)C(=S)Nc1ccccc1F`, the “hERG current change (%, negative = inhibition) at 10uM” value came to 14.5%. Take `CN(Cc1ccccc1F)C(=O)c1sccc1-c1ccccc1`: the “hERG current change (%, negative = inhibition) at 10uM” value is recorded as -28.2%.

Regarding `CCOC(=O)C1CCN(S(=O)(=O)c2csc(C(N)=O)c2)CC1`, the “hERG current change (%, negative = inhibition) at 10uM” value is -17%. Next, `Cc1cc(C(=O)N(C)C)sc1-c1ccccc1`: 3.39%. With `CN1CCN(C(=O)CCCOc2ccc(Cl)cc2Cl)CC1`, the “hERG current change (%, negative = inhibition) at 10uM” value is -61.6%. The result for `Cc1ccc(NC(=O)c2nc(S(=O)(=O)Cc3ccccc3)ncc2Cl)cc1` reads 5.59%; that for `CCN(C(=O)COC(=O)c1cccn1C)C1CCS(=O)(=O)C1` (stereo not shown), 11.1%. On to `CCCCn1c(NS(=O)(=O)c2ccc(C)cc2)c(C(=O)OCC)c2nc3ccccc3nc21`, for which the “hERG current change (%, negative = inhibition) at 10uM” value is -5.12%. `CN(C)C(=O)c1cc(C(=O)c2ccccc2Cl)c[nH]1`: the “hERG current change (%, negative = inhibition) at 10uM” value was 11.8%. Next, `CCn1cnc2c1c(=O)n(Cc1ccc(C(=O)OC)cc1)c(=O)n2Cc1ccccc1`: 16.7%; `COc1ccccc1NS(=O)(=O)c1ccc2oc(N)nc2c1`: -0.0394%. Next, `O=c1ccnc(SCn2nnc3ccccc3c2=O)[nH]1`: 11.7%; `COc1cc(C2=NOC(C(=O)NCc3ccccn3)C2)cc(OC)c1OC` (stereo not shown): 16.7%; `COc1ccccc1Cc1nnc(NC(=O)C2CCN(C(=O)c3ccco3)CC2)s1`: 6.21%. The result for `COc1ccc2cc(/C=C/C(=O)c3ccco3)c(Cl)nc2c1` reads 23%; that for `COc1cc(Br)cc(/C=N/NC(=O)Cc2ccc(C(F)(F)F)cc2[N+](=O)[O-])c1O`, 2.12%.

As to `COc1ccccc1NCN1C(=O)CCC1=O`, the “hERG current change (%, negative = inhibition) at 10uM” value was -1.36%. The result for `CCCCNc1nc2ccccc2nc1NS(=O)(=O)c1ccc(F)cc1` reads -0.523%; that for `Cn1ccsc1=NC(=O)c1ccc(S(=O)(=O)C(F)F)cc1`, 7.74%; that for `NC(=S)NC1CC2C=CC1C2` (stereo not shown), 8.86%. The result for `COc1ccccc1C(O)(C(=O)NN(C(=O)c1ccccc1)c1ccccc1C)c1cccs1` (stereo not shown) reads -26.9%; that for `CCc1ccc(S(=O)(=O)Nc2ccncc2)cc1`, 5.53%. The result for `CCCc1cc(C(N)=O)c(NC(=O)c2ccco2)s1` reads 16.8%; that for `O=C(Cn1cc2c(n1)CCCC2)NCCCN1CCN(c2ccccc2F)CC1`, -31.1%.

As for `NS(=O)(=O)c1cccc(NC(=O)COC(=O)c2ccccc2C(=O)c2ccccc2)c1`, the “hERG current change (%, negative = inhibition) at 10uM” value is on record as -49.5%.

On to `CN1C(=O)[C@@H]2[C@@H]3C[C@@H]([C@H]4ON=C(c5ccc(Cl)cc5)[C@@H]34)[C@@H]2C1=O`, for which the “hERG current change (%, negative = inhibition) at 10uM” value is -26.2%. The result for `Cn1nc(C(F)(F)F)cc1-c1ccc(/C=C(\C#N)C(=O)c2ccccc2)s1` reads 15.2%; that for `Cc1c(NC(=O)C(C)OC(=O)c2cc3c4ccccc4n(C)c3s2)c(=O)n(-c2ccccc2)n1C` (stereo not shown), -68.5%; that for `O=C(NC1CCC(O)CC1)c1ccc2c(c1)S(=O)(=O)N=C1CCCCCN12` (stereo not shown), 11.1%. The result for `CCOc1ccc(-n2c(SCC(=O)OC)nc3sc4c(c3c2=O)CCN(C)C4)cc1` reads -0.924%; that for `CC(C)NC(=O)c1ccccc1N(Cc1ccccc1)S(C)(=O)=O`, 13%. Next, `CC(C)(C)c1ccc(CN2C(=O)c3ccccc3S2(=O)=O)cc1`: 7.52%; `O=C(NCC1CCCO1)c1ccccc1OCc1ccc(Cl)cc1` (stereo not shown): -1.91%; `Cc1ccccc1CNC1CCCCC1.Cl`: -7.81%.

With `CN(Cc1ccccc1)CC(O)COc1ccc(CNCCCOc2cccnc2)cc1` (stereo not shown), the “hERG current change (%, negative = inhibition) at 10uM” value is 11.7%.

Regarding `O=C(O)CC1=C(O)C(=O)N(c2ccccc2)C1c1ccc(Cl)cc1` (stereo not shown), the “hERG current change (%, negative = inhibition) at 10uM” value amounted to 9.31%. Next, `Cc1sc2ncn(CC(=O)NC3CCCCC3)c(=O)c2c1C`: -18.4%; `O=c1[nH]c(SCc2nc3ccccc3c(=O)n2-c2ccccc2C(F)(F)F)nc2ccccc12`: -7.23%.

With `O=C(Nc1cccnc1)Nc1cccc(F)c1`, the “hERG current change (%, negative = inhibition) at 10uM” value stood at 11%.

Turning to `O=C(N/N=C/c1ccc(F)cc1)c1cccc(NC(=O)c2ccc(F)cc2)c1`, the “hERG current change (%, negative = inhibition) at 10uM” value is recorded as -4.54%.

Turning to `COC(=O)c1[nH]c2cc(OC)c(OC)cc2c1/C=N/Nc1ccccc1`, the “hERG current change (%, negative = inhibition) at 10uM” value is listed as 14.2%. Next, `CCC(C)N1CCN(S(=O)(=O)c2ccc3ccccc3c2)CC1.O=C(O)C(=O)O` (stereo not shown): 14.9%. Turning to `CC(=O)c1c(C)[nH]c(C(=O)OCC(=O)Nc2c(C)cccc2C)c1C`, the “hERG current change (%, negative = inhibition) at 10uM” value was 20.8%. The result for `CC(=O)Nc1ccc(S(=O)(=O)N(Cc2ccco2)CC2CCCO2)cc1` (stereo not shown) reads 8.3%.

`COc1ccc(-n2c(Cc3cccn3C)nnc2SCC(=O)NCCc2ccccc2)cc1`: the “hERG current change (%, negative = inhibition) at 10uM” value stood at 6.15%.

With `O=C(N/N=C/c1cn(-c2ccccc2)nc1-c1cccnc1)c1ccc(F)cc1`, the “hERG current change (%, negative = inhibition) at 10uM” value was -41.3%. The result for `COc1ccc(Oc2nc(-c3ccncc3)nc3ccccc23)cc1` reads 14.1%; that for `CC1CCN(C2=C(NS(=O)(=O)c3ccccc3)C(=O)c3ccccc3C2=O)CC1`, -21.1%; that for `O=C(CSc1ccc(-c2ccc(F)cc2)nn1)NC1CCCCC1`, -6.19%. Regarding `Cn1nc(-c2ccc(OCC(N)=O)cc2)c2ccccc2c1=O`, the “hERG current change (%, negative = inhibition) at 10uM” value was -8.41%.

Turning to `COc1ccc(C2CC(C(F)(F)F)n3nc(C(=O)O)cc3N2)cc1OC` (stereo not shown), the “hERG current change (%, negative = inhibition) at 10uM” value is recorded as -7.6%. The result for `CCOC(=O)c1cn2ccc(C)cc2n1` reads 24%. The result for `CCCc1ccc(OCc2nc(-c3ccc(NC(=O)c4cccs4)cc3)no2)cc1` reads 1.52%; that for `Cc1nnc(SCCOc2ccccc2)s1`, 9.54%; that for `O=C1CSC(c2ccccn2)N1Cc1cn2ccccc2n1` (stereo not shown), -4.27%. The result for `Cc1ccc(NC(=O)CC2NCCNC2=O)cc1Cl` (stereo not shown) reads 24.9%; that for `CCN(CC)C(=O)C1CCCN(C(=O)CCn2nnnc2CN2CCOCC2)C1` (stereo not shown), 17.7%.
